The values that follow come from PMC5043580.

Protein sequences, listed by entry. Tags and fused reporters are not part of them. Lines headed by an entry give the natural chain unless they say otherwise; changes in a name come on top.
UniProt P19793: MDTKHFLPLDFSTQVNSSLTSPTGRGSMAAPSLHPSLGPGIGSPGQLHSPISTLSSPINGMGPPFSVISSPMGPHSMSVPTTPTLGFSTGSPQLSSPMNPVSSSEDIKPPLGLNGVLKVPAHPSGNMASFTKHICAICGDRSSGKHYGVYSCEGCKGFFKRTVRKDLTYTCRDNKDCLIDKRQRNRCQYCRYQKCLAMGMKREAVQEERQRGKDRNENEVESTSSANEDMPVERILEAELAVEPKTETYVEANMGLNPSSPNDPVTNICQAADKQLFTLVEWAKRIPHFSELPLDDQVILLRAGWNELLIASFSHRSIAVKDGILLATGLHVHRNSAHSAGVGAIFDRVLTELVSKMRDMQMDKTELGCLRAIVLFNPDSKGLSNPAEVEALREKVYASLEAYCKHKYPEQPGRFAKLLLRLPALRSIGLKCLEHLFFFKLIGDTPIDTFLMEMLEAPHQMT
UniProt Q03267: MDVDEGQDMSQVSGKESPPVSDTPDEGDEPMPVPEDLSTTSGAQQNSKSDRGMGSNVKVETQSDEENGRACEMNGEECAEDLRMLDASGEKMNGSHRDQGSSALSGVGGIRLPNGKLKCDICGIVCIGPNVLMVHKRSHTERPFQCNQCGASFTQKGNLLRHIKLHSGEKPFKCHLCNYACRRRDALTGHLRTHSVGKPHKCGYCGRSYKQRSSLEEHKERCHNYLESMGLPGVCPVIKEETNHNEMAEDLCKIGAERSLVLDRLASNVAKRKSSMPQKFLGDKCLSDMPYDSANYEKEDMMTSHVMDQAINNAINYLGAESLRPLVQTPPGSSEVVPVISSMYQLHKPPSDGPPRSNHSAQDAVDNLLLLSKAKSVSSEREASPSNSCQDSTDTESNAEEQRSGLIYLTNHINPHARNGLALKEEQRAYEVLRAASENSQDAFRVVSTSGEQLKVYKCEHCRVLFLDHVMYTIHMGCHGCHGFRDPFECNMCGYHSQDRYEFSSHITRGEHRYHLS
UniProt O08900: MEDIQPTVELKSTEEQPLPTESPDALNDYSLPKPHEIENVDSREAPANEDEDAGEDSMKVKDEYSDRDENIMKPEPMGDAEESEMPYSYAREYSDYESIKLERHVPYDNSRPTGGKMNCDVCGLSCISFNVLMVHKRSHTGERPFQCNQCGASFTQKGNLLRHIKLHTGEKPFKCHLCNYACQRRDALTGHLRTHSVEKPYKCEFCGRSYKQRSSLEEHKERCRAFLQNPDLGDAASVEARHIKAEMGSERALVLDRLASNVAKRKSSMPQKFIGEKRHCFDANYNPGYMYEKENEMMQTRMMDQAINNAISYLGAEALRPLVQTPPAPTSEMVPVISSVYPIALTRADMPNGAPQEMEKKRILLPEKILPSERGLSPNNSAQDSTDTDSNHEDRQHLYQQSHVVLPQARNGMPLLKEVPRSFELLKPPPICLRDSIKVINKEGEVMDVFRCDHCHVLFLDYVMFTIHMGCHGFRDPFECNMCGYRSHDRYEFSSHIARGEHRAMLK
UniProt O89091: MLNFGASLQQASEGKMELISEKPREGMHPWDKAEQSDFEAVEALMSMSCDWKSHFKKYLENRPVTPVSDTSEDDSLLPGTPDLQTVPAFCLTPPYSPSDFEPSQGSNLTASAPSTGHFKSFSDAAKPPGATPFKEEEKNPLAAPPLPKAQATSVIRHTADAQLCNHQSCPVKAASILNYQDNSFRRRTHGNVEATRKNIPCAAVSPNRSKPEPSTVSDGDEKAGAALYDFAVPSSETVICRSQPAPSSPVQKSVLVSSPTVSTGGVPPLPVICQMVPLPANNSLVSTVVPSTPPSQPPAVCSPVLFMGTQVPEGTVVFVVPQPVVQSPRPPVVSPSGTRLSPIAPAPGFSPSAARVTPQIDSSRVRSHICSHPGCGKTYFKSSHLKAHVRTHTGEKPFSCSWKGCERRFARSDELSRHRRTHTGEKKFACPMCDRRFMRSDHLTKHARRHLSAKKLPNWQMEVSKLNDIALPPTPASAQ
UniProt P52952: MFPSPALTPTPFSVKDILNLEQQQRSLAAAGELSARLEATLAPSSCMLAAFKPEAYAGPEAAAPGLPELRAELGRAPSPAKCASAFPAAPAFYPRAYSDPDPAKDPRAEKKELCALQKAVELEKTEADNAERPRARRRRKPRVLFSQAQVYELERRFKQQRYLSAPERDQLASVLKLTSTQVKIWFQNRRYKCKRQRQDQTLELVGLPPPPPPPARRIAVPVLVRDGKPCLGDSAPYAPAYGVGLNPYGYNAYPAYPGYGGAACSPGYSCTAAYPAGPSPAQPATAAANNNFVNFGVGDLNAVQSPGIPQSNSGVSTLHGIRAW
UniProt P13297: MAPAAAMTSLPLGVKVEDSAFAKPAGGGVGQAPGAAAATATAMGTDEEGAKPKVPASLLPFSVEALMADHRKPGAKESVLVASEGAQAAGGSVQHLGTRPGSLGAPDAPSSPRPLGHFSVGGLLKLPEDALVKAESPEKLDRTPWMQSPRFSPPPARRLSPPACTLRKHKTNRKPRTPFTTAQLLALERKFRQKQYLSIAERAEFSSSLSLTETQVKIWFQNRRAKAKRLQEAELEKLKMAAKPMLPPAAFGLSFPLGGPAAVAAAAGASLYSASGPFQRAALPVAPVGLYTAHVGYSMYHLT
UniProt Q99811: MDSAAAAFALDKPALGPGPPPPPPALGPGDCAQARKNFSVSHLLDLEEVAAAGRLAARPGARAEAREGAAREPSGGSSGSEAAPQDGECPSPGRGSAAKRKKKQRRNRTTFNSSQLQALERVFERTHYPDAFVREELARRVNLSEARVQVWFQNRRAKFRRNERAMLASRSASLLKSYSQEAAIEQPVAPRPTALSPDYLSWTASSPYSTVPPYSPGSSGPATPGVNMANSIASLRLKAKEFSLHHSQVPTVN

Holding throughout (test): two-hybrid; NKX2-5 fused to GAL4-AD (pGADT7), partners fused to GAL4-DBD (pGBKT7); co-transformed into S. cerevisiae AH109; double transformants selected on -Leu/-Trp, interaction read as growth on high stringency -Ade/-His/-Leu/-Trp plates
Test [1] has as its target retinoid X receptor α (human) (UniProt P19793).
The target of test [2] is IKAROS family zinc finger 1 (UniProt Q03267).
For test [3], the target named is IKZF3 (UniProt O08900).
The target of test [4] is T1, IKZF5 (UniProt Q9H5V7).
T1 sequence: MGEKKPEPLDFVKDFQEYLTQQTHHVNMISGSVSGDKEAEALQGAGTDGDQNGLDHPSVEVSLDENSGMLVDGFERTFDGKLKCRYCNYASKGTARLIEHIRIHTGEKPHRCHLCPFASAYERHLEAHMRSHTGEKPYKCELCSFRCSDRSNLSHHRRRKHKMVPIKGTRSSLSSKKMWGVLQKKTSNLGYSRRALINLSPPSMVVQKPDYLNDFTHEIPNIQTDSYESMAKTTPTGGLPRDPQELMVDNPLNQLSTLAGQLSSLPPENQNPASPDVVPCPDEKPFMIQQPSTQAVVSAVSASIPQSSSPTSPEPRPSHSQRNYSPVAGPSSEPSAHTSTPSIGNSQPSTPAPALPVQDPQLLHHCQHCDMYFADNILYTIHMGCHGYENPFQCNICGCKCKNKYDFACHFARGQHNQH

Test [5] concerns the target Kruppel-like factor 10 (murine) (UniProt O89091).
In test [6] the target is NKX2-5 wild type (UniProt P52952).
Test [7] has as its target T2, RXRγ (UniProt P28705).
T2 sequence: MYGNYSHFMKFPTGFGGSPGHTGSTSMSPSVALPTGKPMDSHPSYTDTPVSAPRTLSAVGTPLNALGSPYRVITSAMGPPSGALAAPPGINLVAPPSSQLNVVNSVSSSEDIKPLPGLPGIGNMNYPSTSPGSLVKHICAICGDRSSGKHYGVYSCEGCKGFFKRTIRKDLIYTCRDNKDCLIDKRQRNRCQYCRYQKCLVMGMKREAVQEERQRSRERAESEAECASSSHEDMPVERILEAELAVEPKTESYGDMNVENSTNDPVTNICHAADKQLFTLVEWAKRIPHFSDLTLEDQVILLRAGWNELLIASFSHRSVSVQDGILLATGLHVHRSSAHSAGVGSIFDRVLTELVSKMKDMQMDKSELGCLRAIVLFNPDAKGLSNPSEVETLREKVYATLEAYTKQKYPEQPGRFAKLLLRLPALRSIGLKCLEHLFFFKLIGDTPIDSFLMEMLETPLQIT

Test [8] deals with T3, TFAP4 (UniProt Q01664).
T3 sequence: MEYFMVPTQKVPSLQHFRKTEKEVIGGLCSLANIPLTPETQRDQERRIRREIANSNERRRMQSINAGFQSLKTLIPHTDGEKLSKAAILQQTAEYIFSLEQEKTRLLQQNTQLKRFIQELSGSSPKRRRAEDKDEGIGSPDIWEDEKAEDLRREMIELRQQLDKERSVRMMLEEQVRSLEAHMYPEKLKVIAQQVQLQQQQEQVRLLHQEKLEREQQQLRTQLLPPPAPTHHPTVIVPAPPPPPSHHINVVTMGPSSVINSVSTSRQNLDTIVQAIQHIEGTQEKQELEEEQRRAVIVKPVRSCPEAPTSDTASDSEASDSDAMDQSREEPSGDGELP

The target in test [9] is T4, glucocorticoid modulatory element binding protein 1 (murine) (UniProt Q9JL60).
T4 sequence: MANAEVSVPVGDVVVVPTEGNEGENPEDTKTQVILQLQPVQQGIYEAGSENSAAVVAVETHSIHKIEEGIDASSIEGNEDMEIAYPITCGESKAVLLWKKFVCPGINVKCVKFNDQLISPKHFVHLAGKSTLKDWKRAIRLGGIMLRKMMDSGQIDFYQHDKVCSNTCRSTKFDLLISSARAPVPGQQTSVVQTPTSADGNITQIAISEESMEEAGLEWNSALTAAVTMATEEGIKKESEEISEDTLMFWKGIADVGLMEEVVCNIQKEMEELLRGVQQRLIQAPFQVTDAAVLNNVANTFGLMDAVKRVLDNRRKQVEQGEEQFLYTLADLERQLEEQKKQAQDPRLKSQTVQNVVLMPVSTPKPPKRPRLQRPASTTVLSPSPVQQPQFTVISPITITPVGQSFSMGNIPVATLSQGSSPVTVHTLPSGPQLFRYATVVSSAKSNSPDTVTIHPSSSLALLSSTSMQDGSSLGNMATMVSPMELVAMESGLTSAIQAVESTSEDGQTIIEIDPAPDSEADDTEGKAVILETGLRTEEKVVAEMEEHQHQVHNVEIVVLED

Test [10] addresses msh homeobox MSX1 (murine) (UniProt P13297).
Test [11] has as its target T5, nuclear TF Y-γ (murine) (UniProt P70353).
T5 sequence: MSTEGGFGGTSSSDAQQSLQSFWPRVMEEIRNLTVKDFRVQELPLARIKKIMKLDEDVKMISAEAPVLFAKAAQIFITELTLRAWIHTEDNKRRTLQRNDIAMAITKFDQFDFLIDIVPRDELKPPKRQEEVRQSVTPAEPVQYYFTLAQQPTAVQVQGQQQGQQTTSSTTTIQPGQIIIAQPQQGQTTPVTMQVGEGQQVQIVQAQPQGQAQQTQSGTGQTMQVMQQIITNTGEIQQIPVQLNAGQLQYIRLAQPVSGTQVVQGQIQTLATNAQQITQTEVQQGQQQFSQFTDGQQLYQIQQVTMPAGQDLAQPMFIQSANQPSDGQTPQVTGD

The target in test [12] is paired-related homeobox 2 (UniProt Q99811).
Test [13] has as its target T6, zinc finger and BTB domain containing 11 (murine) (UniProt G5E8B9).
T6 sequence: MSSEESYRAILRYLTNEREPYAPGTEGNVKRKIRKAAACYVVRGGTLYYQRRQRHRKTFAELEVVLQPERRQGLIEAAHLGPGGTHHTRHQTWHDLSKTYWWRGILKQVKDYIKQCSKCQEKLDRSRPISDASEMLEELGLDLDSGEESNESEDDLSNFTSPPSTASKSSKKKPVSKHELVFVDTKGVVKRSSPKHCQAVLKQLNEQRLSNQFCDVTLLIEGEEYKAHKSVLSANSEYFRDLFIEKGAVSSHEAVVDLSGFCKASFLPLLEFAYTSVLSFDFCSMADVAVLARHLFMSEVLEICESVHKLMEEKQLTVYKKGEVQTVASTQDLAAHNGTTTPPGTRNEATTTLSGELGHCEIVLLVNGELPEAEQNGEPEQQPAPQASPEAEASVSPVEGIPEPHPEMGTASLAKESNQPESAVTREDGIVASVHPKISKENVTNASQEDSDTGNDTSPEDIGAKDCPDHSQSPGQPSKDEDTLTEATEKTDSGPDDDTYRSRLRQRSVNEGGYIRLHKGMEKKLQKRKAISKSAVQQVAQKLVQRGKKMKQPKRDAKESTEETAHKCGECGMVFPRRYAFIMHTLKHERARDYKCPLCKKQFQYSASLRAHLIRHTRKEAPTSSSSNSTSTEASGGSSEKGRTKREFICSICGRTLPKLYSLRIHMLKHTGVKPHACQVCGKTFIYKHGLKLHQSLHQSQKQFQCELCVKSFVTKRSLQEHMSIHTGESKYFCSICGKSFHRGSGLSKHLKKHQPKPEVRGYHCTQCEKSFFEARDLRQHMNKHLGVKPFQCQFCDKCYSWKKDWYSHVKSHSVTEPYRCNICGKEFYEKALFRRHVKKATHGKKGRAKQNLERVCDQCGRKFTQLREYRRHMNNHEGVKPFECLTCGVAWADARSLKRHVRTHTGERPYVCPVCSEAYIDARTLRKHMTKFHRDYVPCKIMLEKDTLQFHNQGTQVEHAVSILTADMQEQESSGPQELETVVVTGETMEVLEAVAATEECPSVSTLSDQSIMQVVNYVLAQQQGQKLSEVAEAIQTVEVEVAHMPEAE

These are yes or no findings as the source states them, for the method shown. Some results given as binding are weak or reduced against the parent protein; the word gives no strength. For some assays here: Where a sequence is shown, tags or fusion partners need not be part of it.

Turning to “NKX2-5 Q187H (from UniProt P52952 1-324)”, the binding entry in test [1] is “binds”.
On the same count and under the same terms, to “NKX2-5 R190H (from UniProt P52952 1-324)” belongs “binds”.
On the same count and under the same terms, for “NKX2-5 R189G (from UniProt P52952 1-324)” the value was “binds”; for “NKX2-5 N188K (from UniProt P52952 1-324)”, “binds”.
For “NKX2-5 wild type (from UniProt P52952 1-324)”, the binding result in [2] is “binds”; in [3] it was “binds”; in [4], “binds”; in test [5], “no binding”; in [6] it was “binds”; in test [7], “no binding”. Also, the binding entry is reported as “no binding” in [8]; “no binding” in test [9]; “no binding” in [10]; “no binding” in test [11]; “binds” in test [12]; “binds” in [1]. Moreover, the binding result in [13] is recorded as “no binding”.
